Results reported in PubChem BioAssay AID686979 (National Center for Advancing Translational Sciences (NCATS), 2013).
Among all 420,000 compounds or so, about 50,000 (12%) were called active. Inconclusive means that the source gave no clear call. Such entries were picked first, then a sample of the others. Calls follow the shape of the dose curve; as a rule, active = well fitted inhibition curve with a large enough effect; inconclusive = small, poorly fitted or top-dose-only effect; inactive = flat fitted curve, though single readings scatter. No potency is given beside an inconclusive call; the fits are too rough. Where a structure was tested more than once in an assay, its records may differ in their call.

assay: qHTS for Inhibitors of human tyrosyl-DNA phosphodiesterase 1 (TDP1): qHTS in cells in presence of CPT; details: chicken DT40 Tdp1-/-;hTDP1 cells + 20 nM CPT, ATP luminescence, 48 h; activity change, negative = growth inhibition: at 46.2 µM (top of the series) unless noted; also: nearly all actives have a fitted effect of over 55% in size
Method in brief: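 Cell growth measured by CellTiter-Glo luminescence after a minimum 48 h, 37 C compound exposure with 20 nM CPT in Tdp1-knockout DT40 cells stably expressing hTDP1, seeded 400/well; qHTS titration format.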
% is scaled to controls: 0 for no effect and ±100 for the full control effect; potency is read from the fitted curve at half-maximal effect; tags tell the direction and shape of the fitted curve.

SMILES | activity change, negative = growth inhibition | Potency
COC(=O)c1[nH]c2cc(OC)ccc2c1NC(=O)CCN1CCN(c2ccccc2)CC1 | inconclusive: -33.7% [inhibitor] | 
Cc1oc(-c2ccccc2Cl)nc1CN1CCCC1c1ccc(F)cc1 (stereo unspecified) |  | inconclusive [inhibitor, single point]
O=C(N1CCOCC1)C12OC3CC(CC(C3)O1)O2 | inactive: -2.2% | 
COc1ccccc1-c1cc(NC=O)c2ncc(-c3cccc(C(=O)N(C)C)c3)n2c1 |  | inconclusive [inhibitor, single point]
COc1ccc(/C=C/C(=O)c2cc(Cl)ccc2O)c(OC)c1 |  | inconclusive [inhibitor, partial curve]
O=C1CCCN1CN(C(=O)c1ccc2c(c1)OCO2)c1cccc(Cl)c1 |  | inconclusive [inhibitor, single point]
COc1ccc(Br)cc1/C=C\C(=O)NCc1cccnc1 | inactive: 0.975% | 
O=c1cnn(Cc2ccc(Cl)c(Cl)c2)c2ccccc12 |  | active: 20.6 µM
Cc1cc(O)cc2c1C1CCC3(C)C(=O)CCC3C1C=C2 (stereo unspecified) |  | inconclusive [inhibitor, partial curve, poor fit]
COc1ccc(NS(=O)(=O)c2ccc(C(=O)N(C)Cc3cccs3)cc2)cc1 |  | inconclusive [inhibitor, single point]
OC1CCCN(c2c3c(nc4cc(-c5cccc(F)c5)nn24)CCCC3)C1 (stereo unspecified) |  | active: 23.1 µM
CCc1nn(CC(=O)Nc2c(C)cc(C)cc2C)c(=O)c2cc3sccc3n12 | inactive: -4.3% | 
C=Cc1ccc(Cn2c(=O)n(-c3ccccc3C)c(=O)c3c4c(sc32)CN(C(C)=O)CC4)cc1 |  | inconclusive [inhibitor, single point]
CC(=O)c1ccc(NC(=O)CSc2nc(-c3ccccc3F)nc3c2c(=O)n(C)c(=O)n3C)cc1 |  | inconclusive [inhibitor, full curve, poor fit]
OC(c1cccc(Cl)c1)c1nc(-c2ccc3c(c2)OCO3)cs1 (stereo unspecified) |  | inconclusive [inhibitor, partial curve, poor fit]
COC(=O)c1c(NC(=S)Nc2cc(OC)c(Cl)cc2OC)sc2c1CCCCC2 | inactive: 5.06% | 
COc1cccc(CC(NC(C)=O)C(=O)NC2CCN(c3c(Cc4ccccc4)c(C)nc4ncnn34)CC2)c1OC (stereo unspecified) | inactive: -12.5% | 
Cc1sc2ncnc(Sc3nnnn3-c3ccc(Cl)cc3)c2c1C |  | inconclusive [inhibitor, single point]
C(=N\c1c(-c2ccccc2)nc2n1CCS2)/c1ccccc1 | inconclusive: -31% [inhibitor] | 
CC1(Cc2ccc(OC(F)(F)F)cc2)C(=O)Nc2ccc(OC(F)(F)F)cc21 (stereo unspecified) |  | inconclusive [inhibitor, single point]
CCC(Sc1nc2ncccc2[nH]1)C(=O)NC1CCCC1 (stereo unspecified) | inactive: -0.159% | 
Cc1cccc(NS(=O)(=O)c2ccc(Cl)cc2)n1 | inactive: -1.92% | 
Cn1c(NC(=O)c2ccc(Br)o2)cc(=O)n(C)c1=O | inactive: 2.48% | 
CCOC(CCn1c(SCC(=O)NC2CCCC2)nc2ccccc2c1=O)OCC |  | inconclusive [inhibitor, single point]

SMILES | activity change, negative = growth inhibition | Potency
Cc1ccc(C(=O)Nc2ccc3c(c2)N(C)C(=O)c2ccccc2S3)cc1F |  | active: 1.03 µM
CC(=O)Nc1ccc(C(=O)CSc2nnc(C)o2)cc1 | inactive: -8.61% | 
Cc1ccc2c(C)c(C(=O)N3CCCCC3CO)oc2c1C (stereo unspecified) |  | active: 18.4 µM
Cc1ccc(N2C(=O)N(CC(=O)Nc3cc(C)cc(C)c3)C(=O)C2C)cc1 (stereo unspecified) |  | inconclusive [inhibitor, single point]
O=C1c2ccccc2C(=O)c2cc(N3CCCCC3)ccc21 |  | inconclusive [inhibitor, single point]
Cc1[nH]nc2c1C(c1ccc(F)cc1)C(C#N)=C(N)O2 (stereo unspecified) | inactive: -0.83% | 
Cc1ccccc1C(=O)N(CC(=O)Nc1sc(C)c(C)c1C(N)=O)C1CCCC1 |  | inconclusive [inhibitor, single point]
COc1ccc(-n2c(-c3ccc(Br)cc3)n[nH]c2=S)cc1 |  | inconclusive [inhibitor, single point]
Cn1c2ccccc2c(=O)c2c(=O)n(-c3ccccc3)c(-c3ccc(C(C)(C)C)cc3)nc21 |  | inconclusive [inhibitor, single point]
Cc1cc2oc(=O)cc(-c3ccccc3)c2c(C)c1-c1ccc(C#N)cc1 |  | active: 16.4 µM
O=C(N/N=C/c1ccc2c(c1)OCO2)c1sc2cc(Cl)ccc2c1Cl |  | active: 5.8 µM
COc1ccc(Cn2c(SCC#N)nc3ccc(N4CCOCC4)cc3c2=O)cc1 |  | inconclusive [inhibitor, single point]
COc1cc(NC(=O)c2cc(OC)c(OC)c(OC)c2)ccc1NC(=O)c1cccs1 |  | inconclusive [inhibitor, single point]
CCOc1ccccc1CN1CCN(CC2=Cc3cc(OC)ccc3OC2)CC1CCO (stereo unspecified) |  | inconclusive [inhibitor, single point]
CCN(Cc1ccccc1)C(=O)Nc1ccc2c(c1)N(C)C(=O)c1ccccc1S2 |  | inconclusive [inhibitor, single point]
COCCN(CCOC)S(=O)(=O)c1ccc(C(=O)Nc2nc(-c3ccncc3)cs2)cc1 |  | inconclusive [inhibitor, single point]
CCCCc1cc(=O)oc2cc(OCC(=O)N3CCC(C(=O)O)(c4ccccc4)CC3)ccc12 | inactive: -7.2% | 
COc1ccc2ccccc2c1C(=O)/C=C\c1ccoc1 |  | inconclusive [inhibitor, single point]
COC(=O)[C@H]1C[C@H]2[C@@H]3CC[C@H]4C[C@@H](OC)CC[C@]4(C)[C@H]3CC[C@]2(C)[C@@]2(CCCO2)O1 |  | inconclusive [inhibitor, partial curve]
CC1Cc2cc(S(=O)(=O)NCc3ccc(F)cc3)ccc2N1C(=O)C1CCC1 (stereo unspecified) |  | inconclusive [inhibitor, full curve]
COc1cccc(NC(=O)C(=O)c2cn(CC(=O)N3CCCC3)c3ccccc23)c1 |  | inconclusive [inhibitor, partial curve, poor fit]
CN1CCC(=C2c3ccccc3C=Cc3ccccc32)CC1 |  | active: 29.9 µM
FC(F)(F)c1ccccc1-c1cc(NCc2cccs2)ncn1 |  | inconclusive [inhibitor, single point]
COc1ccccc1N(CC(O)CN1CCOCC1)S(=O)(=O)c1ccccc1 (stereo unspecified) | inactive: 5.13% | 

SMILES | activity change, negative = growth inhibition | Potency
Cc1c(Cl)cccc1NC(=S)NCCc1ccc(C(F)(F)F)cc1 |  | inconclusive [inhibitor, single point]
COc1ccc([C@H]2CC(=O)C=C(c3cccc(C(C)C)c3)C2)cc1 |  | inconclusive [inhibitor, partial curve]
O=C(NCCOc1ccccc1F)c1ccccc1SCc1ccc(F)cc1 | inactive: -21.5% | 
CCc1cc(S(=O)(=O)N2CCN(C(=O)c3ccco3)CC2)ccc1OC |  | inconclusive [inhibitor, partial curve]
COc1ccc(N(CC(=O)NCc2ccc(C)cc2)S(=O)(=O)c2c(C)nn(C)c2C)cc1 |  | inconclusive [inhibitor, partial curve]
CCCNC(=O)c1cc(C2CCCN(C(=O)c3ccccc3)C2)on1 (stereo unspecified) | inactive: 4.15% | 
CCOC(=O)C1CCN(c2ncnc3nc[nH]c23)CC1 | inactive: -1.38% | 
CC1(C(=O)Nc2cccc(C#N)c2)CCN1C(=O)Cc1ccc(-c2ccccc2)cc1 (stereo unspecified) |  | active: 4.11 µM
O=C(NCc1cccs1)c1ccc(CSc2nc3ccncc3n2Cc2cccc(F)c2)cc1 |  | inconclusive [inhibitor, single point]
Cc1cc(NC(=O)CCC(=O)N(CC(=O)NC2CCCC2)c2ccc(C(C)C)cc2)no1 |  | inconclusive [inhibitor, single point]
COc1ccc(CNC(=O)C[C@H]2C(=O)N(c3ccccc3)C[C@@H]2Cc2ccccc2)cc1 |  | inconclusive [inhibitor, single point]
CC(C)(C)S(=O)(=O)/C(C#N)=N/Nc1ccc(C#N)cc1 |  | inconclusive [inhibitor, single point]
Cc1occc1C(=O)N/N=C/c1ccc(Cl)c([N+](=O)[O-])c1 |  | inconclusive [inhibitor, single point]
O=C1C(=O)N(CC2COc3ccccc3O2)c2ccccc21 (stereo unspecified) |  | active: 1.64 µM
O=C(Cc1cccs1)NNC(=S)NC(=O)c1ccco1 |  | inconclusive [inhibitor, single point]
O=C(NC1(C(F)(F)F)NC(=O)N(CCc2ccccc2)C1=O)c1ccccc1F (stereo unspecified) | inactive: -23.1% | 
CCN(CC)c1ccc(-c2nc3cnccn3c2NC2CCCC2)cc1 |  | active: 20.6 µM
O=C(Nc1cccc(-c2nnc(-c3ccccc3)o2)c1)C1CCCO1 (stereo unspecified) |  | inconclusive [inhibitor, partial curve]
CCOc1ccc2nc(N(Cc3cccnc3)C(=O)c3ccc4c(c3)OCCO4)sc2c1 |  | inconclusive [inhibitor, single point]
Cn1cc(C2NC(=O)c3ccccc3N2)c2ccccc21 (stereo unspecified) |  | active: 1.16 µM
COc1cccc(CSc2nc3cc(OC)c(OC)cc3c3nc(CCn4nc(C)cc4C)nn23)c1 | inactive: -6.78% | 
O=C(NCCNC(=O)c1ccccc1[N+](=O)[O-])c1ccccc1[N+](=O)[O-] | inactive: 15.2% | 
Cc1nc2c(OCc3ccc(F)cc3)cccn2c1N(C)C(=O)CCC1CCCC1 |  | inconclusive [inhibitor, single point]
